Measured values from PubChem BioAssay AID686978 (National Center for Advancing Translational Sciences (NCATS), 2013).
About 64,000 (15%) of roughly 420,000 compounds were called active. Inconclusive results, whose numbers are uncertain, are shown with a selection of clear calls. The call rests on the fitted dose curve; in most records, active means well fitted inhibition curve with a large enough effect; inconclusive means small, poorly fitted or top-dose-only effect; inactive means flat fitted curve, though single readings scatter. No potency is given beside an inconclusive call; the fits are too rough.

Experiment: qHTS for Inhibitors of human tyrosyl-DNA phosphodiesterase 1 (TDP1): qHTS in cells in absence of CPT; further: nearly all actives have a fitted effect of over 55% in size
Conditions: DT40 Tdp1-/- hTDP1 cells, no CPT, ATP luminescence, 48 h; series mostly up to 46.2 µM
Procedure, shortened: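 Cells were dispensed at 400 per well, compounds added by pin tool, plates incubated ≥48 hr at 37 °C, then CellTiter-Glo added for 30 min at room temperature before luminescence reading. Line: DT40 Tdp1-/- complemented with hTDP1; camptothecin omitted.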
Potency means the concentration at half of the fitted maximal effect; tags describe the fitted curve by direction and shape.

SMILES	Potency
CC(C)CC1C(=O)N(Cc2cn(CCC3OCCO3)nn2)CCS(=O)(=O)N1Cc1ccc(-c2ccc(F)cc2)cc1 (configuration not stated)	active: 23.1 µM
COc1ccc(-c2nc(CS(=O)CC(=O)NCCc3ccc(Cl)cc3)c(C)o2)cc1OC (configuration not stated)	inconclusive [inhibitor, single point]
Cc1ccc(Cc2c(-c3ccco3)nc3ccc(C)cn23)cc1	active: 13 µM
COc1ccc(N(C)C(=O)CCC(=O)Nc2ccc3nc(N4CCOCC4)cc(C)c3c2)c(OC)c1	active: 16.4 µM
O=C1c2ccccc2C(=O)N1CCCCON1C(=O)c2ccccc2C1=O	inactive
COc1ccc(C(=O)n2cc(C(C)=O)c3ccccc32)cc1	active: 14.6 µM
Cc1cc(C(=O)Nc2cccc(NC(=O)c3ccco3)c2)ccc1[N+](=O)[O-]	inconclusive [inhibitor, single point]
CCn1c(SCC(=O)NNC(=O)c2ccc(C)cc2)nnc1-c1ccco1	inconclusive [inhibitor, partial curve]
COc1cccc(CNC(=S)Nc2ccc(Cl)cc2C)c1	inconclusive [inhibitor, single point]
CC(/C=C/c1ccco1)=N/NC(=O)C1COc2ccccc2O1 (configuration not stated)	active: 16.4 µM
CC(=O)Nc1cc(-c2cccc(C(=O)N(C)C)c2)cn2c(-c3ccc(C(C)=O)cc3)cnc12	active: 11.6 µM
CC(C)(C)c1cc(NC(=O)c2ccc(OC3CCCC3)cc2)no1	inconclusive [inhibitor, single point]
COc1cc(CN(C(=O)c2ccccc2F)C2CCS(=O)(=O)C2)cc(OC)c1OC (configuration not stated)	inactive
Cc1ccc2c(CC(=O)Nc3ccc(S(=O)(=O)N4CCCCC4)cc3)coc2c1C	active: 14.6 µM
CC(C)C(NC(=O)c1ccc(F)cc1)C(=O)OCC(=O)N1CC(=O)Nc2ccccc21 (configuration not stated)	inactive
Cc1cccc(Nc2nc(N)nc(CN3CCN(c4ccccc4)CC3)n2)c1	inconclusive [inhibitor, partial curve]
COc1ccc(C(=O)NCC(=O)OCC(=O)NCCC2=CCCCC2)cc1	inactive
CCc1nc(SCC(=O)Nc2ccc([N+](=O)[O-])cc2)n[nH]1	inactive
CC(=O)OC1CC(C)N(C(=O)c2ccccc2)c2ccc(C)cc21 (configuration not stated)	inconclusive [inhibitor, partial curve]
O=C(NCCCCc1ccccc1)C1CC(c2ccc([N+](=O)[O-])cc2)=NO1 (configuration not stated)	inconclusive [inhibitor, single point]
c1ccc(-c2ccccc2-c2nc(-c3cccnc3)no2)cc1	inconclusive [inhibitor, single point]
CC(C)CN(C(=O)COC(=O)c1c2c(nc3ccccc13)CCC2)c1c(N)n(Cc2ccccc2)c(=O)[nH]c1=O	inconclusive [inhibitor, single point]
CC(C)(C)OC(=O)n1cc(C(=O)c2ccccc2O)cn1	inactive
CCN(CC)S(=O)(=O)c1ccc2[nH]cc(C(=O)NCCC3=CCCCC3)c(=O)c2c1	active: 18.4 µM

SMILES	Potency
CC(=O)NC1C(Oc2ccc(C=O)cc2)OC(COC(C)=O)C(OC(C)=O)C1OC(C)=O (configuration not stated)	inactive
Cc1cccc(N2C(=O)CC(N(C(=O)c3ccco3)c3cccc(C)c3)C2=O)c1 (configuration not stated)	inactive
Cc1ccccc1-c1nc(CS(=O)(=O)CC(=O)NCCCN2CC(C)CC(C)C2)c(C)o1 (configuration not stated)	inconclusive [inhibitor, single point]
Cn1ncc(Cl)c1C(=O)N1CCN(c2cccc(Cl)c2)CC1	inconclusive [inhibitor, single point]
Cn1cnc([N+](=O)[O-])c1S(=O)(=O)c1ccc(Cl)cc1	active: 2.91 µM
Oc1c(C(c2ccc(F)cc2)N2CCN(Cc3ccccc3)CC2)sc2nc(-c3ccco3)nn12 (configuration not stated)	inconclusive [inhibitor, single point]
COc1cc(-c2nn3c(-c4cccc(C)c4)nnc3s2)cc(OC)c1OC	inconclusive [inhibitor, partial curve]
C=CCSc1nnc(-c2ccccc2N=Cc2c(C)[nH]n(-c3ccccc3)c2=O)c(=O)[nH]1	inconclusive [inhibitor, single point]
CCCCNC(=O)CCCN1C(=O)c2ccccc2Sc2ncccc21	inconclusive [inhibitor, single point]
Cc1cccc(NC(=O)C(C)OC(=O)c2ccccc2NS(=O)(=O)c2cc(C)c(C)c([N+](=O)[O-])c2)c1 (configuration not stated)	inconclusive [inhibitor, single point]
CCN(Cc1nc(-c2cccc(C)c2)no1)S(=O)(=O)c1ccc(C)cc1	inconclusive [inhibitor, single point]
COc1ccc(C(=O)Nc2ccc(-n3nncc3C(C)(C)C)cc2)cc1	inconclusive [inhibitor, single point]
COc1ccc(CCNC(=O)C2CCN(C(=O)c3ccc(Br)cc3)CC2)cc1	inconclusive [inhibitor, single point]
CN(CC(=O)Nc1cccc(S(=O)(=O)N2CCCC2)c1)CC(=O)Nc1ccc(Cl)c(C(F)(F)F)c1	active: 16.4 µM
CC1=NN(C(=O)c2ccc(Br)cc2)C(O)(c2ccccc2)C1 (configuration not stated)	inconclusive [inhibitor, single point]
CC1=C(C(=O)N(C)C)CC(CC(=O)NCCc2ccccn2)C(=O)N1CCCN1CCCC1=O (configuration not stated)	inactive
Cc1ccc(/C=N/NC(=O)c2ccccc2OCc2cccc(Br)c2)o1	active: 7.31 µM
COC(=O)c1cc(NC(=O)Nc2ccc3snnc3c2)cc(C(=O)OC)c1	inactive
O=P(c1ccccc1)(c1ccccc1)C(O)c1ccc(Br)cc1 (configuration not stated)	inconclusive [inhibitor, partial curve]
O=C(C1CCCO1)N1CCN(c2ccc(F)cc2)CC1 (configuration not stated)	inactive
OC[C@H]1O[C@@H](n2cnc3cncnc32)[C@H](O)[C@@H]1O	active: 0.461 µM
CC(C)C(C)NC(=O)CSc1nc2scc(-c3ccco3)c2c(=O)n1-c1ccccc1 (configuration not stated)	inconclusive [inhibitor, single point]
CCS(=O)(=O)N1Cc2ccccc2CC1C(=O)Nc1nnc(SCc2c(Cl)cccc2Cl)s1 (configuration not stated)	inconclusive [inhibitor, single point]
CCn1c2c(c(=N)c3c1CCC3)CCC2	inactive

SMILES	Potency
Cc1cccc(C)c1NC(=O)CN1C(=O)CCSc2ccc(S(=O)(=O)N3CCCC3)cc21	inconclusive [inhibitor, single point]
COc1ccc(CCN2CC(C(=O)N(C)Cc3ccccn3)CCC2=O)cc1 (configuration not stated)	inactive
Nc1ccc2c(c1)[nH]c(=O)c1ccccc12	inconclusive [inhibitor, single point]
COc1ccc(N(CC(=O)Nc2ccc(C)c(C)c2)S(=O)(=O)c2ccc(C)cc2)cc1OC	inactive
CCn1c(O)c(N=NC2=NC(=O)CS2)c2ccccc21	inactive
Cc1ccc(C)c(N2C(=O)N(Cc3c(F)cccc3Cl)c3ccccc3S2(=O)=O)c1	inconclusive [inhibitor, single point]
CCC(Oc1ccccc1)C(=O)N1CCN(c2ccccn2)CC1 (configuration not stated)	inconclusive [inhibitor, single point]
CC(C)c1ccccc1NC(=O)CNCCOc1ccccc1F	inactive
COC(=O)C1C(=O)c2c([nH]c(C(=O)OC3CCCC3C)c2C)CC1C (configuration not stated)	active: 13 µM
CC1(C(=O)Nc2ccc3c(c2)OCCO3)CN(S(C)(=O)=O)CC(=O)N1CCc1ccccc1F (configuration not stated)	inactive
CCCCOCCCNC(=O)c1ccccc1OCC	inactive
CC1Oc2ccccc2C=C1/C=N/NC(=O)c1ccccc1O (configuration not stated)	inconclusive [inhibitor, partial curve]
C=CCn1c(SCC(=O)Nc2ccc(-c3nc4ccc(C)cc4s3)cc2)nnc1-c1ccncc1	inactive
COCCOC1CCN(C(=O)c2cc(COc3ccc(-n4cncn4)cc3)on2)CC1	inactive
c1ccc(OCc2noc(CN3CCC(C4CCCCC4)C3)n2)cc1 (configuration not stated)	inconclusive [inhibitor, single point]
CCC(=O)N(Cc1ccc2c(c1)OCO2)Cc1cc2cc(OC)ccc2[nH]c1=O	inconclusive [inhibitor, single point]
Cc1ccccc1-c1noc(-c2ccc(N3CCN(c4ccccc4)CC3)c([N+](=O)[O-])c2)n1	inconclusive [inhibitor, single point]
O=C(CSc1ncnc2c1oc1ccccc12)Nc1nc2ccccc2s1	inconclusive [inhibitor, single point]
Cc1ccccc1Oc1ccc2c(c1)[C@@H]1C[C@H](N(C)C(=O)NC3CCCCC3)[C@H]([C@H](C)O)C(=O)N1CC2	inconclusive [inhibitor, single point]
Cc1ccc(C(=O)N(CC#N)CC#N)cc1C	inactive
COc1ccc(C(=S)N2CCOCC2)cc1OC(=O)c1ccc([N+](=O)[O-])cc1[N+](=O)[O-]	inactive
Cc1ccc(S(=O)(=O)N2CCCCC2)cc1C(=O)NC1CCCCC1	inconclusive [inhibitor, single point]
COc1ccc(OCC(=O)Nc2ccncc2)cc1	inactive
COc1ccc(-c2nnc(SCc3cc(C)ccc3C)n2N)cc1	inconclusive [inhibitor, single point]
